# Experimental data: the supplement of paper PMC8728848
# Some of the results follow.
# What was measured:
# Test in all cases: glycan array binding signal (z-score within array); higher = stronger binding
# Settings in all cases: glycan notation: IUPAC condensed, linker removed
# [1] = target: GlcNAc(b1-3)Gal(b1-4)GlcNAc(b1-3)Gal(b1-4)GlcNAc
# Summary of the method: (§1)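 From the Consortium for Functional Glycomics database, 3228 arrays were curated, keeping only those whose protein sequence was available. Binding is given as a within-array Z-score averaged across arrays sharing a protein sequence and across linkers. Negative Z-scores can be read as non-binding.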
# [2] = target: GlcNAc(b1-3)GalNAc
# Summary of the method: as §1
# [3] = target: GlcNAc(b1-3)Man
# Summary of the method: as §1
# [4] = target: GlcNAc(b1-3)[GlcNAc(b1-4)][GlcNAc(b1-6)]GlcNAc
# Summary of the method: as §1
# [5] = target: GlcNAc(b1-3)[GlcNAc(b1-6)]Gal(b1-4)GlcNAc
# Summary of the method: as §1
# [6] = target: GlcNAc(b1-3)[GlcNAc(b1-6)]GalNAc
# Summary of the method: as §1
# [7] = target: GlcNAc(b1-4)Gal(b1-4)GlcNAc
# Summary of the method: as §1
# [8] = target: GlcNAc(b1-4)GlcNAc
# Summary of the method: as §1
# [9] = target: GlcNAc(b1-4)GlcNAc(b1-4)GlcNAc
# Summary of the method: as §1
# [10] = target: GlcNAc(b1-4)GlcNAc(b1-4)GlcNAc(b1-4)GlcNAc(b1-4)GlcNAc
# Summary of the method: as §1
# [11] = target: GlcNAc(b1-4)GlcNAc(b1-4)GlcNAc(b1-4)GlcNAc(b1-4)GlcNAc(b1-4)GlcNAc
# Summary of the method: as §1
# [12] = target: GlcNAc(b1-4)[GlcNAc(b1-6)]GalNAc
# Summary of the method: as §1
# [13] = target: GlcNAc(b1-6)Gal(b1-4)GlcNAc
# Summary of the method: as §1
# [14] = target: GlcNAc(b1-6)GalNAc
# Summary of the method: as §1
# [15] = target: GlcNAc3Prop(b1-4)GlcNAc
# Summary of the method: as §1
# [16] = target: GlcNAc6S(b1-3)Gal(b1-4)GlcNAc
# Summary of the method: as §1
# [17] = target: Kdn(a2-3)Gal(b1-3)GalNAc
# Summary of the method: as §1
# [18] = target: Kdn(a2-3)Gal(b1-3)GlcNAc
# Summary of the method: as §1
# [19] = target: Kdn(a2-3)Gal(b1-4)Glc
# Summary of the method: as §1
# [20] = target: Kdn(a2-3)Gal(b1-4)GlcNAc
# Summary of the method: as §1
# [21] = target: Kdn(a2-3)Gal(b1-4)[Fuc(a1-3)]GlcNAc
# Summary of the method: as §1
# [22] = target: Kdn(a2-6)Gal(b1-4)GlcNAc
# Summary of the method: as §1
# [23] = target: Man(a1-2)Man(a1-2)Man(a1-3)Man
# Summary of the method: as §1
# [24] = target: Man(a1-2)Man(a1-2)Man(a1-6)[Man(a1-3)]Man
# Summary of the method: as §1
# [25] = target: Man(a1-2)Man(a1-3)Man
# Summary of the method: as §1
# [26] = target: Man(a1-2)Man(a1-3)[Man(a1-2)Man(a1-6)]Man
# Summary of the method: as §1
# [27] = target: Man(a1-2)Man(a1-3)[Man(a1-2)Man(a1-6)]Man(a1-6)[Man(a1-2)Man(a1-2)Man(a1-3)]Man
# Summary of the method: as §1
# [28] = target: Man(a1-2)Man(a1-3)[Man(a1-2)Man(a1-6)]Man(a1-6)[Man(a1-2)Man(a1-2)Man(a1-3)]Man(b1-4)GlcNAc(b1-4)GlcNAc
# Summary of the method: as §1
# [29] = target: Man(a1-2)Man(a1-3)[Man(a1-6)]Man(a1-6)[Man(a1-2)Man(a1-3)]Man(b1-4)GlcNAc(b1-4)GlcNAc
# Summary of the method: as §1
# [30] = target: Man(a1-2)Man(a1-6)[Man(a1-3)]Man(a1-6)[Man(a1-2)Man(a1-2)Man(a1-3)]Man
# Summary of the method: as §1
# [31] = target: Man(a1-2)Man(a1-6)[Man(a1-3)]Man(a1-6)[Man(a1-2)Man(a1-2)Man(a1-3)]Man(b1-4)GlcNAc(b1-4)GlcNAc
# Summary of the method: as §1
# [32] = target: Man(a1-3)[Man(a1-6)]Man
# Summary of the method: as §1
# [33] = target: Man(a1-3)[Man(a1-6)]Man(a1-6)[Man(a1-2)Man(a1-3)]Man(b1-4)GlcNAc(b1-4)GlcNAc
# Summary of the method: as §1
# [34] = target: Man(a1-3)[Man(a1-6)]Man(a1-6)[Man(a1-3)]Man
# Summary of the method: as §1
# [35] = target: Man(a1-3)[Man(a1-6)]Man(a1-6)[Man(a1-3)]Man(b1-4)GlcNAc(b1-4)GlcNAc
# Summary of the method: as §1
# [36] = target: Man(a1-3)[Man(a1-6)]Man(b1-4)GlcNAc(b1-4)GlcNAc
# Summary of the method: as §1
# [37] = target: Man(a1-6)Man
# Summary of the method: as §1
# [38] = target: Man(b1-4)GlcNAc
# Summary of the method: as §1
# [39] = target: Neu5Ac(a2-3)Gal
# Summary of the method: as §1
# [40] = target: Neu5Ac(a2-3)Gal(b1-3)GalNAc
# Summary of the method: as §1
# [41] = target: Neu5Ac(a2-3)Gal(b1-3)GalNAc(b1-3)Gal(a1-4)Gal(b1-4)Glc
# Summary of the method: as §1
# [42] = target: Neu5Ac(a2-3)Gal(b1-3)GalNAc(b1-4)[Neu5Ac(a2-3)]Gal(b1-4)Glc
# Summary of the method: as §1
# [43] = target: Neu5Ac(a2-3)Gal(b1-3)GalNAc6S
# Summary of the method: as §1
# [44] = target: Neu5Ac(a2-3)Gal(b1-3)GlcNAc
# Summary of the method: as §1
# [45] = target: Neu5Ac(a2-3)Gal(b1-3)GlcNAc(b1-2)Man(a1-3)[Neu5Ac(a2-3)Gal(b1-3)GlcNAc(b1-2)Man(a1-6)]Man(b1-4)GlcNAc(b1-4)GlcNAc
# Summary of the method: as §1
binder,measurement,setting,value
"Lmo1413 (Listeria monocytogenes), Q8Y783 (protein) MKHAKKSLFTFIIFMTILSITFNPFSAKAAPLMLNLPAPQVDQLYIGDDYITGKLQQEVPMHYPGNAAYVLFNNKQYNITDYTVENDVNFRLKLPKTLEAGDTLNYFTITGNVLDPVAYPGQESYKLAGPFSPIEKANIQVNYVDETNQTLATSDTLSGKLGETYTTSPKAIDGYQVKETPTNATGTYTTNTETIQINYVYEKTAVEGANVSVEYINEATNESIAPTETLSGKIGTTFQAEVKEIDGYELSQVPSNQSGTYTDQTQSVIFKYKKITTPDEVAKDVTVTYKDTKGNQLADPVILKGDIGSTFETEAKSFKGYKLTKTPSNHSSVFTSDSQEVEYVYSKDDAVITPPVTPVNPDKPIINPVKPVNPATSTVPNKNISKKNTTKTVNQTGKTSTALQLPKTGDSENNLPLIIGVSLLISGVYIFTTRRKRVK",glycan array binding signal (z-score),[1],-0.107
same,glycan array binding signal (z-score),[2],-0.111
same,glycan array binding signal (z-score),[3],0.036
same,glycan array binding signal (z-score),[4],0.087
same,glycan array binding signal (z-score),[5],0.208
same,glycan array binding signal (z-score),[6],-0.092
same,glycan array binding signal (z-score),[7],0.117
same,glycan array binding signal (z-score),[8],-0.08
same,glycan array binding signal (z-score),[9],0.095
same,glycan array binding signal (z-score),[10],-0.093
same,glycan array binding signal (z-score),[11],-0.014
same,glycan array binding signal (z-score),[12],-0.016
same,glycan array binding signal (z-score),[13],0.859
same,glycan array binding signal (z-score),[14],0.771
same,glycan array binding signal (z-score),[15],0.018
same,glycan array binding signal (z-score),[16],-0.155
same,glycan array binding signal (z-score),[17],0.042
same,glycan array binding signal (z-score),[18],-0.186
same,glycan array binding signal (z-score),[19],-0.186
same,glycan array binding signal (z-score),[20],-0.154
same,glycan array binding signal (z-score),[21],-0.192
same,glycan array binding signal (z-score),[22],-0.144
same,glycan array binding signal (z-score),[23],-0.15
same,glycan array binding signal (z-score),[24],-0.182
same,glycan array binding signal (z-score),[25],-0.042
same,glycan array binding signal (z-score),[26],-0.167
same,glycan array binding signal (z-score),[27],-0.221
same,glycan array binding signal (z-score),[28],-0.148
same,glycan array binding signal (z-score),[29],-0.123
same,glycan array binding signal (z-score),[30],-0.129
same,glycan array binding signal (z-score),[31],-0.262
same,glycan array binding signal (z-score),[32],-0.238
same,glycan array binding signal (z-score),[33],-0.226
same,glycan array binding signal (z-score),[34],-0.212
same,glycan array binding signal (z-score),[35],-0.251
same,glycan array binding signal (z-score),[36],-0.231
same,glycan array binding signal (z-score),[37],-0.138
same,glycan array binding signal (z-score),[38],-0.026
same,glycan array binding signal (z-score),[39],-0.235
same,glycan array binding signal (z-score),[40],-0.223
same,glycan array binding signal (z-score),[41],-0.257
same,glycan array binding signal (z-score),[42],-0.26
same,glycan array binding signal (z-score),[43],-0.27
same,glycan array binding signal (z-score),[44],-0.137
same,glycan array binding signal (z-score),[45],-0.239
